# Experimental data published in PubChem BioAssay (Tox21).
# Values joined by “and” are separate entries in the source; they are usually repeats but may differ in a detail not shown here. Identical values can stand only once. This list was built around the results that the source calls inconclusive (neither active nor inactive); the mix of calls is not that of the screen. Potencies of inconclusive entries are doubtful fits and often do not repeat. Active and inactive are the calls of the source. Calls follow the shape of the dose curve; as a rule, active = well fitted curve in the direction sought with a large enough effect in the repeat runs; inconclusive = weak or mixed curves; inactive = no such curve, though single readings can be large; an effect the other way counts as inactive or inconclusive.
# Columns and labels:
# [1] = qHTS RealTime-Glo MT Cell Viability Assay in HEK293 cells - 16 hour (AID 1224872); also: nearly all actives have a fitted effect of over 50% in size
# Procedure, shortened: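 Cells + reagent dispensed (600 cells/well, HEK293) → 5 h at 37 C/5% CO2 → 23 nL compound in DMSO pinned → 40 h at 37 C → luminescence read at 0, 8, 16, 24, 32, 40 h.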
# [2] = qHTS RealTime-Glo MT Cell Viability Assay in HEK293 cells - 40 hour (AID 1224874); settings: RealTime-Glo luminescence; max response: hits give low values; also: nearly all actives have a fitted effect of over 50% in size; as to max response: % is scaled to controls: 0 for no effect and ±100 for the full control effect
# Procedure, shortened: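 Cells were seeded together with NanoLuc luciferase and a prosubstrate that viable cells reduce to a luciferase substrate. After a 5 h incubation at 37 C/5% CO2, compounds were added and luminescence was measured repeatedly during 40 h of treatment.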
# [3] = qHTS RealTime-Glo MT Cell Viability Assay in HepG2 cells - 8 hour (AID 1224873); also: nearly all actives have a fitted effect of over 55% in size
# Procedure, shortened: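 HepG2 cells mixed with RealTime-Glo MT reagents (NanoLuc plus cell-permeant prosubstrate) were seeded at 600 cells/well, incubated 5 h at 37 C/5% CO2, then pinned with compounds in DMSO; nonlytic luminescence tracked viability during 40 h treatment.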
# [4] = A CellTox Green Cytotoxicity Assay to monitor cytotoxicity in HEK293 cells - 24 hour (AID 1224875); also: nearly all actives have a fitted effect of over 45% in size; as to activity change: series mostly up to about 77 µM; % is scaled to controls: 0 for no effect and ±100 for the full control effect
# Procedure, shortened: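 Nonlytic real-time cytotoxicity: HEK293 + CellTox Green reagent plated, 5 h preincubation, pintool compound addition (23 nL in DMSO), 37 C for 40 h, fluorescence measured at successive time points.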
# [5] = A CellTox Green Cytotoxicity Assay to monitor cytotoxicity in HepG2 cells - 16 hour (AID 1224876); also: nearly all actives have a fitted effect of over 45% in size
# Procedure, shortened: (§1)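 Read-out is fluorescence of a cyanine dye excluded from live cells that stains DNA of dead HepG2 cells, with signal proportional to cytotoxicity. Plates were read at 0, 8, 16, 24, 32 and 40 h after compound addition.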
# [6] = qHTS RealTime-Glo MT Cell Viability Assay in HepG2 cells - 32 hour (AID 1224877); also: nearly all actives have a fitted effect of over 55% in size; as to activity change, negative = cytotoxic: % is scaled to controls: 0 for no effect and ±100 for the full control effect
# Procedure, shortened: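 Real-time, nonlytic viability: 600 HepG2 cells/well mixed with NanoLuc enzyme plus prosubstrate; 5 h settle, compound (DMSO) added by pintool; luminescence monitored over 40 h at 37 C.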
# [7] = A CellTox Green Cytotoxicity Assay to monitor cytotoxicity in HepG2 cells - 24 hour (AID 1224878); also: nearly all actives have a fitted effect of over 45% in size
# Procedure, shortened: as §1
# [8] = A CellTox Green Cytotoxicity Assay to monitor cytotoxicity in HepG2 cells - 40 hour (AID 1224879); also: nearly all actives have a fitted effect of over 40% in size
# Procedure, shortened: as §1
# Potency is read from the fitted curve at half-maximal effect; tags tell the direction and shape of the fitted curve.
smiles,measurement,setting,value
C#CC(C)N(C)C(=O)Nc1ccc(Cl)cc1 (stereo unspecified),Potency,[1],"inconclusive: 27.5 µM [cytotoxic, partial curve]"
same,Potency,[2],"inconclusive: 43.6 µM [cytotoxic, partial curve]"
CCc1ccc(CCOc2ccc(CC3SC(=O)NC3=O)cc2)nc1 (stereo unspecified),Potency,[1],"inconclusive: 43.6 µM [cytotoxic, partial curve] and inconclusive: 26.8 µM [cytotoxic, partial curve, poor fit]"
same,Potency,[2],"inconclusive: 49 µM [cytotoxic, single point]"
Nc1ccc(N)c2c1C(=O)c1ccccc1C2=O,Potency,[1],"inconclusive: 12.3 µM [cytotoxic, full curve]"
same,Potency,[3],"inconclusive: 24.5 µM [falling, partial curve, poor fit]"
same,Potency,[2],"inconclusive: 13.8 µM [cytotoxic, full curve]"
CC(C)c1nnc2ccc(-c3ocnc3-c3cc(F)ccc3F)cn12,Potency,[1],active: 17.4 µM
same,Potency,[2],active: 19.5 µM
O=C(O)Cc1c[nH]c2ccccc12,Potency,[1],inactive
same,max response,[2],inactive: 12.4% and inactive: 16.9%
C=C(C)C(=O)Nc1ccc(Cl)c(Cl)c1,Potency,[1],active: 22.1 µM and active: 21.8 µM
same,Potency,[2],active: 19.7 µM and active: 24.4 µM
S=C([S-])NCCNC(=S)[S-].[Mn+2],Potency,[1],"inconclusive: 61.6 µM [rising, single point]"
same,Potency,[2],"inconclusive: 61.6 µM [rising, single point]"
CN(C(=O)CCCOc1ccc2[nH]c(=O)ccc2c1)C1CCCCC1,Potency,[1],"inconclusive: 19 µM [cytotoxic, partial curve]"
same,Potency,[2],"inconclusive: 16.9 µM [cytotoxic, partial curve]"
CCN(CC)CCOC(=O)C(c1ccccc1)C1CCCCC1 (stereo unspecified),Potency,[1],"inconclusive: 26.8 µM [cytotoxic, single point]"
same,Potency,[2],"inconclusive: 30.1 µM [cytotoxic, single point]"
same,Potency,[4],active: 23.9 µM
same,Potency,[5],"inconclusive: 23.9 µM [activator, single point]"
same,Potency,[6],"inconclusive: 26.8 µM [cytotoxic, partial curve, poor fit]"
N#C/C(=C1\SCC(c2ccccc2Cl)S1)n1ccnc1 (stereo unspecified),Potency,[1],"inconclusive: 9.52 µM [cytotoxic, partial curve]"
same,Potency,[2],"inconclusive: 19 µM [cytotoxic, partial curve]"
CC(C)(Oc1ccc(C2CC2(Cl)Cl)cc1)C(=O)O (stereo unspecified),Potency,[1],"inconclusive: 43.6 µM [cytotoxic, partial curve, poor fit]"
same,Potency,[2],"inconclusive: 21.9 µM [cytotoxic, partial curve]"
same,Potency,[4],"inconclusive: 52.8 µM [activator, single point]"
same,Potency,[6],inactive
COc1cc2c(cc1N)oc1ccccc12,Potency,[1],"inconclusive: 28.1 µM [cytotoxic, partial curve]"
same,Potency,[2],"inconclusive: 28.1 µM [cytotoxic, partial curve]"
CCCCCCCC/C=C\CCCCCCCC(=O)OCCCC,Potency,[1],"inconclusive: 12.5 µM [cytotoxic, single point]"
same,Potency,[2],"inconclusive: 12.5 µM [cytotoxic, single point]"
same,activity change,[4],"inactive: -32.5% [at 15.8 µM, hits give high values]"
same,"activity change, negative = cytotoxic",[6],inactive: 6.1% [at 15.8 µM]
O=c1[nH][nH]c2ccccc12,Potency,[1],inactive
same,Potency,[2],"inconclusive: 39.6 µM [cytotoxic, partial curve]"
CCCc1nn(C)c2c(=O)[nH]c(-c3cc(S(=O)(=O)N4CCN(C)CC4)ccc3OCC)nc12,Potency,[1],"inconclusive: 26.8 µM [cytotoxic, partial curve, poor fit]"
same,Potency,[2],"inconclusive: 23.9 µM [cytotoxic, partial curve]"
Oc1ccc(/C=C/c2cc(O)cc(O)c2)cc1,Potency,[1],"inconclusive: 24.8 µM [cytotoxic, partial curve] and inconclusive: 12.3 µM [cytotoxic, partial curve, poor fit]"
same,Potency,[2],"inconclusive: 9.77 µM [cytotoxic, full curve] and inconclusive: 19 µM [cytotoxic, partial curve]"
same,Potency,[5],"inconclusive: 54.9 µM [activator, single point] and inconclusive: 95.2 nM [activator, single point]"
same,Potency,[6],inactive
same,Potency,[7],"inconclusive: 54.9 µM [activator, single point] and inconclusive: 95.2 nM [activator, single point]"
same,Potency,[8],"inconclusive: 55.4 µM [activator, single point] and inconclusive: 54.9 µM [activator, single point] and inconclusive: 95.2 nM [activator, single point]"
CCCCNc1ccc(C(=O)OCCOCCOCCOCCOCCOCCOCCOCCOCCOC)cc1,Potency,[1],"inconclusive: 4.77 µM [cytotoxic, full curve]"
same,Potency,[2],"inconclusive: 8.49 µM [cytotoxic, partial curve]"
